Results: a collection of fitness landscapes (doi:10.1038/s41467-024-54723-y)
In all, about 18,000 sequences were measured (“TetR repression strength (sort-seq, GFP reporter)”: median about 0.23, highest 2% from about 0.68 on). The list shows a part of the results.

These sequences were tested against TetR (class B, Tn10) (UniProt P04483) (assay: TetR repression strength (sort-seq, GFP reporter) (relative to tetO2 = 1); higher = stronger repression). Settings: E. coli.
Procedure, shortened: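 In LB with 50 µg/mL chloramphenicol, E. coli SIG10-MAX holding a low-copy library with eight randomized operator positions between a constitutive promoter and sfGFP, plus constitutive TetR, grew for 5 h at 37 °C. FACS then sorted 10^6 cells into 13 fluorescence bins for Illumina sequencing of each bin. Repression strength equals the top bin index plus one less the read-weighted mean bin, normalized to the unaltered operator. Values from three independent transformations were averaged when reads were ≥30 in every replicate and the CV was ≤0.5.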

UniProt P04483, sequence (P04483 whole entry): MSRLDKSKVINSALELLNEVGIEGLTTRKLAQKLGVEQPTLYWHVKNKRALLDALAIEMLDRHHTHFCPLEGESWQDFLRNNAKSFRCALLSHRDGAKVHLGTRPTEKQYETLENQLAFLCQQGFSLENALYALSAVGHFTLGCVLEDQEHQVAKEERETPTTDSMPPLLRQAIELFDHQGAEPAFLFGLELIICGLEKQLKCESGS

Row | Sequence | TetR repression strength
1 | TCCCGCCAAGTAACTGAGA | 0.305
2 | TCCCATATAGTGTCTGAGA | 0
3 | TCCCAGGAAGTGGATGAGA | 0.286
4 | TCCCGCCGAGTGGGCGAGA | 0.329
5 | TCCCTCGTAGTGAGTGAGA | 0.507
6 | TCCCCACAAGTCGCCGAGA | 0.232
7 | TCCCTTTCAGTTATTGAGA | 0.55
8 | TCCCGTAGAGTAAGGGAGA | 0.123
9 | TCCCGATCAGTAGTGGAGA | 0.155
10 | TCCCTTTGAGTCTTTGAGA | 0.181
11 | TCCCATTGAGTCGCCGAGA | 0.226
12 | TCCCGCTCAGTGGCCGAGA | 0.397
13 | TCCCGACCAGTCTGGGAGA | 0.205
14 | TCCCGGAGAGTTCGGGAGA | 0.293
15 | TCCCGGTCAGTGACCGAGA | 0.715
16 | TCCCGTCAAGTATTGGAGA | 0.418
17 | TCCCGCTAAGTAGGCGAGA | 0.0386
18 | TCCCTCATAGTATCGGAGA | 0.223
19 | TCCCCATTAGTCTCAGAGA | 0.3
20 | TCCCAAGGAGTATGAGAGA | 0.187
21 | TCCCGCTGAGTGAAGGAGA | 0.262
22 | TCCCCTGGAGTTGATGAGA | 0.147
23 | TCCCGCGTAGTGGGTGAGA | 0.218
24 | TCCCGGGGAGTGACGGAGA | 0.143
25 | TCCCGGTCAGTGTTCGAGA | 0.627
26 | TCCCTTCGAGTGTAGGAGA | 0.202

Row | Sequence | TetR repression strength
27 | TCCCATTGAGTTTATGAGA | 0.502
28 | TCCCAGAGAGTAGAAGAGA | 0.215
29 | TCCCGACTAGTGTATGAGA | 0.264
30 | TCCCTCTGAGTAACTGAGA | 0.253
31 | TCCCTAATAGTGCTTGAGA | 1.01
32 | TCCCTCCGAGTGCAAGAGA | 0.616
33 | TCCCTAAGAGTCTGGGAGA | 0.203
34 | TCCCGATAAGTAAGGGAGA | 0.119
35 | TCCCAGCTAGTATATGAGA | 0.209
36 | TCCCCATGAGTATGGGAGA | 0.0719
37 | TCCCTGGAAGTAAGGGAGA | 0.0732
38 | TCCCATAGAGTGGGTGAGA | 0.0226
39 | TCCCAATGAGTCGTTGAGA | 0.066
40 | TCCCGAAGAGTATGCGAGA | 0.253
41 | TCCCAGTGAGTGGAAGAGA | 0.333
42 | TCCCAAGGAGTCTCCGAGA | 0.0754
43 | TCCCATGGAGTACGGGAGA | 0.156
44 | TCCCATTAAGTTTGGGAGA | 0.524
45 | TCCCTGTTAGTATGTGAGA | 0.212
46 | TCCCTTTGAGTCGGGGAGA | 0.183
47 | TCCCGGCTAGTACGTGAGA | 0.246
48 | TCCCGTACAGTGATAGAGA | 0.63
49 | TCCCGATGAGTTCAGGAGA | 0.24
50 | TCCCACGGAGTTGTCGAGA | 0.233
51 | TCCCTCTTAGTATTAGAGA | 0.321
52 | TCCCTAGCAGTATTGGAGA | 0.502

Row | Sequence | TetR repression strength
53 | TCCCGGCGAGTGAGGGAGA | 0.222
54 | TCCCCTCAAGTGGGAGAGA | 0.136
55 | TCCCGCACAGTCCCTGAGA | 0.402
56 | TCCCGTTGAGTGTATGAGA | 0.181
57 | TCCCACGTAGTTTGGGAGA | 0.174
58 | TCCCGGAAAGTAAAGGAGA | 0.377
59 | TCCCTGGTAGTTTGCGAGA | 0.191
60 | TCCCAGCTAGTAATGGAGA | 0.361
61 | TCCCGGCGAGTGGCCGAGA | 0.265
62 | TCCCAGGGAGTACTCGAGA | 0.275
63 | TCCCGATGAGTGCGAGAGA | 0.286
64 | TCCCACCGAGTGCCGGAGA | 0.213
65 | TCCCTATGAGTGTTAGAGA | 0.626
66 | TCCCCGTCAGTTATGGAGA | 0.134
67 | TCCCCCAGAGTGGTGGAGA | 0.149
68 | TCCCAGCAAGTAGGAGAGA | 0.066
69 | TCCCCCGCAGTAAACGAGA | 0.125
70 | TCCCTTGGAGTAGATGAGA | 0.397
71 | TCCCGTTGAGTTGACGAGA | 0.167
72 | TCCCCCACAGTGGGGGAGA | 0.368
73 | TCCCGTTGAGTTATTGAGA | 0.415
74 | TCCCGCAGAGTGAGTGAGA | 0.0138
75 | TCCCGTAAAGTATTTGAGA | 0.322
76 | TCCCTCGAAGTGGTCGAGA | 0.212
77 | TCCCCAGAAGTTAGCGAGA | 0.104
78 | TCCCTATCAGTTGAGGAGA | 0.618

Row | Sequence | TetR repression strength
79 | TCCCTGTAAGTGCTGGAGA | 0.324
80 | TCCCCTCTAGTGATCGAGA | 0.36
81 | TCCCCTTGAGTTTGTGAGA | 0.323
82 | TCCCAGCTAGTGAACGAGA | 0.379
83 | TCCCTCTGAGTTTAGGAGA | 0.215
84 | TCCCCCTTAGTTGGGGAGA | 0.131
85 | TCCCATCAAGTACGGGAGA | 0.184
86 | TCCCAGCAAGTAACGGAGA | 0.211
87 | TCCCGCGCAGTTAGGGAGA | 0.18
88 | TCCCTGATAGTAAGTGAGA | 0.138
89 | TCCCGTGGAGTTGCGGAGA | 0.148
90 | TCCCGGGTAGTACTGGAGA | 0.177
91 | TCCCGAGAAGTGGGGGAGA | 0.315
92 | TCCCTTGCAGTGCTCGAGA | 0.0699
93 | TCCCGTTGAGTGACAGAGA | 0.438
94 | TCCCTTAGAGTGCGAGAGA | 0.0346
95 | TCCCTTAGAGTGAGCGAGA | 0.125
96 | TCCCGGACAGTACCTGAGA | 0.266
97 | TCCCTTAAAGTGGAGGAGA | 0.248
98 | TCCCAAGTAGTAGGAGAGA | 0.484
99 | TCCCATTGAGTTATTGAGA | 0.544
100 | TCCCGTCTAGTAGCGGAGA | 0.276
101 | TCCCCTGCAGTTTCCGAGA | 0.35
102 | TCCCGGGTAGTAACTGAGA | 0.063
